In the supplement of paper PMC8183993:
Structures can show the parent of a compound that is named as a salt. ± gives the standard deviation of the averaged measurements. The full ranking holds about 3,100 compounds; the median of “mean cytoplasmic OPP incorporation (global translation) relative to DMSO” is about 100, and the lowest 2% start at about 56. The list shows a part of the results.

These compounds were tested on U2OS (assay: mean cytoplasmic OPP incorporation (global translation) relative to DMSO (% of DMSO); higher = more protein synthesis). Conditions: 10 µM; 24 h.
Procedure: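 Primary image-based screen in U2OS cells: compounds at 10 uM for 24 h, then a 1 h o-propargyl-puromycin (OPP) pulse, click labelling, and high-throughput microscopy. Mean cytoplasmic OPP intensity and nuclei count were normalised to DMSO wells within each plate (DMSO = 100) and averaged over triplicate plates.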

Question: `Cc1nc(N)sc1-c1ccnc(Nc2ccc(N3CCOCC3)cc2)n1` was tested. Which “mean cytoplasmic OPP incorporation” value did it give?
Answer: 93.4

Question: `C=CC(=O)Nc1ccc2ncnc(Nc3ccc(OCc4cccc(F)c4)c(Cl)c3)c2c1` was tested. Which “mean cytoplasmic OPP incorporation” value did it give?
Answer: 122 ± 29

Question: For `CC(Oc1c(Cl)cccc1Cl)C1=NCCN1` (stereo not given) [Lofexidine], which “mean cytoplasmic OPP incorporation” value is on record?
Answer: 105

Question: How did the “mean cytoplasmic OPP incorporation” value turn out when `CC1=C(CC(=O)O)c2cc(F)ccc2/C1=C\c1ccc([S+](C)[O-])cc1` (stereo not given) [Sulindac] was run?
Answer: 101 ± 8.4

Question: `C=CC(=O)N1CCC[C@@H](n2nc(-c3ccc(Oc4ccccc4)cc3)c3c(N)ncnc32)C1` was tested. Which “mean cytoplasmic OPP incorporation” value did it give?
Answer: 105 ± 2.3

Question: `COc1c(OCCCN2CCOCC2)ccc2c1N=C(NC(=O)c1cnc(N)nc1)N1CCN=C21` was tested. Which “mean cytoplasmic OPP incorporation” value did it give?
Answer: 94.1

Question: How did the “mean cytoplasmic OPP incorporation” value turn out when `[I-].[K+]` [Potassium iodide] was run?
Answer: 103

Question: How did the “mean cytoplasmic OPP incorporation” value turn out when `O=C1N(c2ccccc2)c2ccccc2C1(Cc1ccncc1)Cc1ccncc1` [Linopirdine dihydrochloride] was run?
Answer: 100

Question: How did the “mean cytoplasmic OPP incorporation” value turn out when `CC(C)CCC[C@@H](C)[C@H]1CC[C@H]2[C@@H]3C(=O)C=C4C[C@@H](O)CC[C@]4(C)[C@H]3CC[C@]12C` [7-Ketocholesterol] was run?
Answer: 112

Question: Which “mean cytoplasmic OPP incorporation” value does the source give for `Cc1cc(-n2c(=O)[nH]c(=O)n(C)c2=O)ccc1Oc1ccc(SC(F)(F)F)cc1` [Toltrazuril] here?
Answer: 100

Question: With `Cc1ccccc1N1C(=O)c2cc(S(N)(=O)=O)c(Cl)cc2NC1C` (stereo not given) [Metolazone] as the compound, how does the “mean cytoplasmic OPP incorporation” value read?
Answer: 92.5

Question: Which “mean cytoplasmic OPP incorporation” value does the source give for `COc1ccc(CNC(=O)Nc2ncc([N+](=O)[O-])s2)cc1` here?
Answer: 96.73 ± 0.15

Question: `OCCOCCN1CCN(C(c2ccccc2)c2ccc(Cl)cc2)CC1` (stereo not given) [Hydroxyzine dihydrochloride] was tested. Which “mean cytoplasmic OPP incorporation” value did it give?
Answer: 98.6

Question: `C=CC1=C(C(=O)O)N2C(=O)[C@@H](NC(=O)/C(=N\OCC(=O)O)c3csc(N)n3)[C@H]2SC1` [Cefixime] was tested. Which “mean cytoplasmic OPP incorporation” value did it give?
Answer: 87.6

Question: `Nc1cccc2c1CN(C1CCC(=O)NC1=O)C2=O` (stereo not given) [Lenalidomide (Revlimid)] was tested. Which “mean cytoplasmic OPP incorporation” value did it give?
Answer: 98.8

Question: With `CC(=O)Nc1ccc(O)cc1` [Acetaminophen] as the compound, how does the “mean cytoplasmic OPP incorporation” value read?
Answer: 106 ± 2.5

Question: With `COc1nc(-c2ccc3c(c2)OCO3)n(-c2ccc(NC(=O)CSc3ccccc3)cc2)n1` [SecinH3] as the compound, how does the “mean cytoplasmic OPP incorporation” value read?
Answer: 120

Question: Which “mean cytoplasmic OPP incorporation” value does the source give for `O=C(Nc1ccc(-c2ccnc(Nc3ccc(N4CCOCC4)cc3)n2)cc1)C1CCCN1` (stereo not given) here?
Answer: 115

Question: With `CCS(=O)(=O)Nc1ccc2c(c1)/C(=C(/Nc1ccc(CN3CCCCC3)cc1)c1ccccc1)C(=O)N2` [Hesperadin] as the compound, how does the “mean cytoplasmic OPP incorporation” value read?
Answer: 56.2

Question: `COc1ccc2[nH]c([S+]([O-])Cc3ncc(C)c(OC)c3C)nc2c1` (stereo not given) [Omeprazole] was tested. Which “mean cytoplasmic OPP incorporation” value did it give?
Answer: 99.5 ± 2.1

Question: With `N[C@H](C(=O)O)[C@H](OCc1ccccc1)C(=O)O` (racemic) as the compound, how does the “mean cytoplasmic OPP incorporation” value read?
Answer: 103

Question: `N=C(N)N/N=C/c1c(Cl)cccc1Cl` [Guanabenz acetate] was tested. Which “mean cytoplasmic OPP incorporation” value did it give?
Answer: 97.2 ± 8.3

Question: For `OC(CCN1CCCCC1)(c1ccccc1)C1CCCCC1` (stereo not given) [Trihexyphenidyl-D,L Hydrochloride], which “mean cytoplasmic OPP incorporation” value is on record?
Answer: 107

Question: `CCCc1nc(C(C)(C)O)c(C(=O)O)n1Cc1ccc(-c2ccccc2-c2nnn[nH]2)cc1` [Olmesartan] was tested. Which “mean cytoplasmic OPP incorporation” value did it give?
Answer: 98.2

Question: For `OC[C@H]1NC[C@@H](O)[C@@H](O)[C@@H]1O` [1-Deoxymannojirimycin hydrochloride], which “mean cytoplasmic OPP incorporation” value is on record?
Answer: 103

Question: For `Brc1c(NC2=NCCN2)ccc2nccnc12` [UK 14,304 tartrate], which “mean cytoplasmic OPP incorporation” value is on record?
Answer: 98

Question: For `Brc1c(NC2=NCCN2)ccc2nccnc12`, which “mean cytoplasmic OPP incorporation” value is on record?
Answer: 102

Question: With `CN(C)CCOC(=O)COc1ccc(Cl)cc1` [Meclofenoxate hydrochloride] as the compound, how does the “mean cytoplasmic OPP incorporation” value read?
Answer: 102

Question: For `CC(C)(C)c1cc(O)ccc1O` [tert-Butylhydroquinone], which “mean cytoplasmic OPP incorporation” value is on record?
Answer: 99.2

Question: How did the “mean cytoplasmic OPP incorporation” value turn out when `CC(N)C12CC3CC(CC(C3)C1)C2` (stereo not given) [Rimantadine Hydrochloride] was run?
Answer: 97.5

Question: With `Fc1cc(-c2cccc3ncc(-c4cnn(C5CCNCC5)c4)nc23)cc(F)c1CN1CCOCC1` as the compound, how does the “mean cytoplasmic OPP incorporation” value read?
Answer: 91.8

Question: Which “mean cytoplasmic OPP incorporation” value does the source give for `CCC(=O)NC[C@H](Cc1ccc(OCCc2nc(-c3ccccc3)oc2C)cc1)N/C(C)=C\C(=O)c1ccc(C(F)(F)F)cc1` here?
Answer: 97.9

Question: For `COc1ccc(C[C@@H]2c3cc(OC)c(OC)cc3CC[N@+]2(C)CCC(=O)OCCCCCOC(=O)CC[N@@+]2(C)CCc3cc(OC)c(OC)cc3[C@H]2Cc2ccc(OC)c(OC)c2)cc1OC` [Cisatracurium besylate (Nimbex)], which “mean cytoplasmic OPP incorporation” value is on record?
Answer: 118

Question: Which “mean cytoplasmic OPP incorporation” value does the source give for `CCOC(=O)c1c(C)n(C)c2ccc(O)cc12` [Mecarbinate] here?
Answer: 94.7

Question: For `Nc1cc(-c2ccncc2)c[nH]c1=O` [Amrinone], which “mean cytoplasmic OPP incorporation” value is on record?
Answer: 110

Question: How did the “mean cytoplasmic OPP incorporation” value turn out when `c1ccc2nc(C3=NCCN3)cnc2c1` [BU 239 hydrochloride] was run?
Answer: 101

Question: `CCC(=O)OCC(=O)[C@@]1(OC(=O)CC)[C@H](C)C[C@H]2[C@H]3[C@H]([C@@H](O)C[C@@]21C)[C@@]1(C)C=CC(=O)C=C1C[C@H]3Cl` [Alclometasone dipropionate] was tested. Which “mean cytoplasmic OPP incorporation” value did it give?
Answer: 97.9

Question: For `CN(CCOc1ccc(CC2SC(=O)NC2=O)cc1)c1ccccn1` (stereo not given) [Rosiglitazone Hydrochloride], which “mean cytoplasmic OPP incorporation” value is on record?
Answer: 106

Question: Which “mean cytoplasmic OPP incorporation” value does the source give for `CN(CCOc1ccc(CC2SC(=O)NC2=O)cc1)c1ccccn1` (stereo not given) [Rosiglitazone maleate] here?
Answer: 112

Question: For `O=C(NCC(=O)N1CCCC1)Nc1ccc2cnccc2c1`, which “mean cytoplasmic OPP incorporation” value is on record?
Answer: 81.2

Question: Which “mean cytoplasmic OPP incorporation” value does the source give for `Cn1c([N+](=O)[O-])cnc1COC(N)=O` [Ronidazole] here?
Answer: 101

Question: How did the “mean cytoplasmic OPP incorporation” value turn out when `O=C1c2ccccc2S(=O)(=O)N1CCCCN1CCN(c2ncccn2)CC1` [Ipsapirone] was run?
Answer: 93.1 ± 2.5

Question: `Cc1ccc2c(c1)C(=O)C1(O)CCN(c3ccccc3)C1=N2` (racemic) [(±)-Blebbistatin] was tested. Which “mean cytoplasmic OPP incorporation” value did it give?
Answer: 103

Question: Which “mean cytoplasmic OPP incorporation” value does the source give for `CN(C)[C@@H]1C(O)=C(C(N)=O)C(=O)[C@@]2(O)C(O)=C3C(=O)c4c(O)ccc(Cl)c4[C@@H](O)[C@H]3C[C@@H]12` [Demeclocycline hydrochloride] here?
Answer: 96.3

Question: With `O=C(O)c1cc(O)c2ccc(Cl)cc2n1` [7-Chlorokynurenic acid] as the compound, how does the “mean cytoplasmic OPP incorporation” value read?
Answer: 99.9

Question: How did the “mean cytoplasmic OPP incorporation” value turn out when `Cc1cc(Nc2nc(N[C@@H](C)c3ncc(F)cn3)ncc2Cl)[nH]n1` was run?
Answer: 80.6

Question: With `COC[C@H](NC(=O)c1cnc(C)s1)C(=O)N[C@@H](COC)C(=O)N[C@@H](Cc1ccccc1)C(=O)[C@@]1(C)CO1` [Oprozomib (ONX 0912)] as the compound, how does the “mean cytoplasmic OPP incorporation” value read?
Answer: 62.1

Question: For `O=C(O)CCC/C=C\C[C@@H]1CO[C@H](C(F)(F)F)O[C@@H]1c1ccccc1O`, which “mean cytoplasmic OPP incorporation” value is on record?
Answer: 101

Question: With `CC(Oc1ccccc1)C(=O)N[C@@H]1C(=O)N2[C@@H]1SC(C)(C)[C@@H]2C(=O)O` (stereo not given in full) [Phenethicillin potassium salt] as the compound, how does the “mean cytoplasmic OPP incorporation” value read?
Answer: 94

Question: For `CC[C@@H]1/C=C(\C)C[C@H](C)C[C@H](OC)[C@H]2O[C@@](O)(C(=O)C(=O)N3CCCC[C@H]3C(=O)O[C@H](/C(C)=C/[C@@H]3CC[C@H](Cl)[C@H](OC)C3)[C@H](C)[C@@H](O)CC1=O)[C@H](C)C[C@@H]2OC` [Pimecrolimus], which “mean cytoplasmic OPP incorporation” value is on record?
Answer: 115
